In the supplement of paper PMC7125110:
± gives the standard error. Variants at the floor of the assay are shown more often than the library holds them.

B1: glmS ribozyme (parent)
chain: AUAAAAGCGCCAGAACUACAGAAAUGUAGUUGACGAGGAGGAGGUUUAUCGAAUUUUCGGCGGAUGCCUCCAAA

What was measured:
Conditions in all cases: with glucosamine-6-phosphate
glucosamine-6-phosphate [1] = variants of: B1; test: self-cleavage kobs at 40 uM GlcN6P; higher = faster cleavage; RNA array
In short: (§1)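 Using a hybridised Cy3 probe at 37 °C, barcoded ribozyme variants transcribed in situ by E. coli RNA polymerase on sequenced MiSeq chips were monitored across tiles imaged over ~14 h. The flow contained glucosamine-6-phosphate from 40 μM to 10 mM in HEPES/KCl/Mg(OAc)2 buffer. Signals were normalised to baseline and to non-cleaving reference variants before per-tile medians were fit to one- or two-exponential decays to yield kobs. Weighted Michaelis–Menten fits across concentrations gave kcat and KM.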

glucosamine-6-phosphate [2] = variants of: B1; test: self-cleavage kobs at 640 uM GlcN6P; higher = faster cleavage; RNA array
In short: as §1

glucosamine-6-phosphate [3] = variants of: B1; test: self-cleavage kobs at 160 uM GlcN6P; higher = faster cleavage; RNA array
In short: as §1

glucosamine-6-phosphate [4] = variants of: B1; test: self-cleavage kobs at 2500 uM GlcN6P; higher = faster cleavage; RNA array
In short: as §1

glucosamine-6-phosphate [5] = variants of: B1; test: self-cleavage kobs at 10000 uM GlcN6P; higher = faster cleavage; RNA array
In short: as §1

Variant	self-cleavage kobs at 40 uM GlcN6P (glucosamine-6-phosphate [1]) [s⁻¹]	self-cleavage kobs at 640 uM GlcN6P (glucosamine-6-phosphate [2]) [s⁻¹]	self-cleavage kobs at 160 uM GlcN6P (glucosamine-6-phosphate [3]) [s⁻¹]	self-cleavage kobs at 2500 uM GlcN6P (glucosamine-6-phosphate [4]) [s⁻¹]	self-cleavage kobs at 10000 uM GlcN6P (glucosamine-6-phosphate [5]) [s⁻¹]
U31G U49C	< 1e-05	< 1e-05	< 1e-05	< 1e-05	< 1e-05
U30C G35A C50G C61U A64G	0.000165 ± 5.1e-05				
A15C G38A	< 1e-05	< 1e-05		< 1e-05	
C16U C34A U57A U65G	< 1e-05				
U31A C67G C68A	< 1e-05				< 1e-05
A14C G60C	< 1e-05				
A15U U49G	< 1e-05				
A15U U49C	< 1e-05	< 1e-05			< 1e-05
G32A C61U G62A C68U	< 1e-05		< 1e-05		
A14U G37U U45C	< 1e-05		< 1e-05	< 1e-05	< 1e-05
G32A C34A	< 1e-05			< 1e-05	< 1e-05
C16A G44A C67A	< 1e-05				
G32A G43A G44C U54A	< 1e-05				
U31C G59C	< 1e-05			< 1e-05	< 1e-05
A15U G29A G43A	< 1e-05				< 1e-05
A15U G40C U47C C70G	< 1e-05				
C16G U31G	4.37e-05 ± 1.7e-05	0.000186 ± 4.5e-05	4.98e-05 ± 1.6e-05	0.000366 ± 0.0001	
G32A G43A C50A	< 1e-05				
C16G G44C C71U	< 1e-05				< 1e-05
U30A A33C	< 1e-05				
C16U U30A A52C	< 1e-05				
A15C G32U G60U	< 1e-05				
A14G G29C U56A	3.76e-05 ± 1.8e-05	0.000364 ± 8.4e-05		0.000647 ± 0.00014	0.00136 ± 0.00029
G29U C34U A42C	< 1e-05	< 1e-05	< 1e-05	< 1e-05	< 1e-05
U31A G35C	< 1e-05	< 1e-05	< 1e-05	< 1e-05	< 1e-05
A14C C16U A36G U47G	< 1e-05				< 1e-05
U30G U49A	< 1e-05	< 1e-05	< 1e-05		< 1e-05
